# This is one part of the list.
# Columns and labels:
# HSkMC = human skeletal muscle cells; assay: cytotoxicity call (relative viability < 0.9); details: 10 µM
# HepG2 = assay: cytotoxicity call (relative viability < 0.9); details: 10 µM
# S. aureus RN4220 = assay: growth inhibition call (relative growth <= 0.2); details: 50 µM
Structure (SMILES),cytotoxicity call (HSkMC),cytotoxicity call (HepG2),growth inhibition call (S. aureus RN4220)
C[C@H](CO)N1C[C@H](C)[C@@H](CN(C)S(=O)(=O)c2cccs2)Oc2c(NC(=O)CCCN(C)C)cccc2C1=O,inactive,inactive,inactive
O=C(c1ccc(F)cc1)N1c2ccccc2C=Cc2ccccc21,inactive,inactive,inactive
COc1ccc(S(=O)(=O)Nc2ccc3c(c2)CC(=O)N([C@H](C)CO)C[C@H](C)[C@@H](CN(C)C(=O)NC(C)C)O3)cc1,inactive,inactive,inactive
COc1ccc(S(=O)(=O)Nc2ccc3c(c2)CC(=O)N([C@H](C)CO)C[C@@H](C)[C@H](CN(C)CC2CC2)O3)cc1,inactive,inactive,inactive
O=C(CCCCCCC(=O)Nc1ccc([C@H]2O[C@@H](CSc3ccncc3)C[C@H](c3ccccc3)O2)cc1)NO,inactive,inactive,inactive
Cc1noc(C)c1NC(=O)Nc1cccc2c1O[C@H](CN(C)Cc1ccc(Oc3ccccc3)cc1)[C@@H](C)CN([C@H](C)CO)C2=O,inactive,inactive,inactive
COc1ccc(NC(=O)Nc2cccc3c2O[C@@H](CN(C)Cc2ccc(Oc4ccccc4)cc2)[C@@H](C)CN([C@H](C)CO)C3=O)cc1,active,active,inactive
NCCCC[C@@H]1NC(=O)[C@H]2C[C@@H](C(=O)NCc3ccc(F)cc3)[C@@H](c3cccc(OCCO)c3)N2C1=O,inactive,inactive,inactive
CC(C)C#Cc1ccc2c(c1)O[C@@H](CN(C)C(=O)Cc1ccccn1)[C@H](C)CN([C@H](C)CO)S2(=O)=O,inactive,inactive,inactive

# Source: the antibiotic and cytotoxicity screens of Wong et al. (2023)
